Screen size: about 310,000 compounds; about 14,000 (4.5%) showed an effect of 50% or more. Effects have a minus sign here. This is one part of the list.
molecular target: human ether-à-go-go-related gene (hERG) potassium channel (human, UniProt Q12809); test: primary screen, population patch clamp on CHO cells stably expressing hERG
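Further: peak tail current of the secondary pulse compared with the same well before compound.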

human ether-à-go-go-related gene (hERG) potassium channel, sequence (Q12809 whole entry, looked up): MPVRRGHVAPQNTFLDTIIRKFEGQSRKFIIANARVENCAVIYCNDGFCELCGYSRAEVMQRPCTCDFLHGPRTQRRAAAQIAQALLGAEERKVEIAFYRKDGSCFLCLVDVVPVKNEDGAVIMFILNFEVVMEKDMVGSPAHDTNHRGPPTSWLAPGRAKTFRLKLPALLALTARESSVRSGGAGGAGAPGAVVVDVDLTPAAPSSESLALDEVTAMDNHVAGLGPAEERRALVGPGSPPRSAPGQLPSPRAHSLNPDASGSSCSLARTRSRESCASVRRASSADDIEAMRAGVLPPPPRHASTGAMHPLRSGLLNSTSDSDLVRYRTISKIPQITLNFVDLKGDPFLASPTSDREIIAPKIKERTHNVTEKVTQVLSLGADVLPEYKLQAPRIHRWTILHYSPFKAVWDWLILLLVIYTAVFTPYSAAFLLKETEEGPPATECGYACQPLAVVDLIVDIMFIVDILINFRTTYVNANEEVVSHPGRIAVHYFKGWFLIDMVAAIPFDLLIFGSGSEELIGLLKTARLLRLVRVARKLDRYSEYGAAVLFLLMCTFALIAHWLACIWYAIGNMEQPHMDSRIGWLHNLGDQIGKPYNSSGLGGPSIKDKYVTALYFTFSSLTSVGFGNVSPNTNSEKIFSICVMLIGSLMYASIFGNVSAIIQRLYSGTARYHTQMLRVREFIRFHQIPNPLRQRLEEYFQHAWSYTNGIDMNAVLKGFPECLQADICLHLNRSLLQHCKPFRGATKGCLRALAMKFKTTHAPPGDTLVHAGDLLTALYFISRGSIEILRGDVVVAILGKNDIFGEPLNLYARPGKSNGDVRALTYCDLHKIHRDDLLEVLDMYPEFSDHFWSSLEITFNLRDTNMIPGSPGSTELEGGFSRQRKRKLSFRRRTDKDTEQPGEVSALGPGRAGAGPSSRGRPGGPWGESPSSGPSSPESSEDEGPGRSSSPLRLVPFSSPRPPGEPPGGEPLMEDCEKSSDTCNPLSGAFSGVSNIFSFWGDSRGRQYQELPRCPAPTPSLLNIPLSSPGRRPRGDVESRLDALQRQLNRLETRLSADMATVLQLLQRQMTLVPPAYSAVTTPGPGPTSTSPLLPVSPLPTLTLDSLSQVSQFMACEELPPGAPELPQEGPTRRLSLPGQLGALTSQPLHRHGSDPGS

| Compound | hERG current change (%, negative = inhibition) at 10uM [%] |
| --- | --- |
| Cc1ccc(C)c(N2CCN(CCCc3ccccc3)CC2)c1 | -59.9 |
| COc1ccccc1NC(=O)c1cccc(S(=O)(=O)N2CCOCC2)c1 | -6.29 |
| C/C(=N\NC(=O)C(C)Sc1ccccc1)c1ccc([N+](=O)[O-])cc1 (stereo not drawn) | -3.27 |
| Cc1ccc(C)c(C(=O)CN2C(=O)NC3(CCc4ccccc43)C2=O)c1 (stereo not drawn) | -24.3 |
| C=CCOc1ccc(/C=N\NC(N)=S)cc1 | 5.76 |
| COc1cc(CNC2CCCCCCC2)cc(Cl)c1OCC(N)=O.Cl | 7.28 |
| OC(CN1CCN(Cc2ccccc2)CC1)Cn1c2ccccc2c2ccccc21 (stereo not drawn) | -67.7 |
| C/C(CC(=O)Nc1cccnc1)=N\NC(=O)C(C)Oc1ccc(Cl)cc1Cl (stereo not drawn) | 14.3 |
| Cc1ccc(Sc2ccc(/C=C3/C(=O)NN(c4ccccc4)C3=O)o2)cc1 | 12 |
| O=S(=O)(Nc1ccc(N2CCCCC2)cc1)c1cccc2cccnc12 | 4.19 |
| Cc1cc(NC(=O)COC(=O)COc2ccc(C(=O)c3ccccc3)cc2)no1 | 3.95 |
| COc1ccc(CC(=O)NNC(=O)c2ccco2)cc1 | 13 |
| Cc1cc2nc(C)n(CCCN)c2cc1C.Cl | -0.0557 |
| CC(=O)NC1(c2nnnn2CCOC(=O)Nc2ccc(Cl)cc2)CCCCC1 | -16.1 |
| CC(C)OC(=O)CSc1nnc(SCc2cccc3ccccc23)s1 | 7.07 |
| CC(=O)Cc1c[nH]c2ccccc12 | 11.7 |
| CN1C(=O)/C(=C\c2cc(Br)cs2)c2ccccc21 | 17.1 |
| CC(=O)N1CCN=C1SCc1ccc(Cl)cc1 | 0.0159 |
| Cc1ccc2sc(N(CCCN(C)C)C(=O)c3ccc(S(=O)(=O)N(C)Cc4ccccc4)cc3)nc2c1C.Cl | -20 |
| CC(C)C1N=C2c3ccccc3N=C(SCC(=O)NCCc3ccc(S(N)(=O)=O)cc3)N2C1=O (stereo not drawn) | 8.56 |
| c1ccc(OCCN2CCN(Cc3nc(-c4ccc5c(c4)OCO5)no3)CC2)cc1 | -51.5 |
| CCCN(CCC)C(=O)Cc1coc2ccc3ccccc3c12 | -9.64 |
| N=c1sccn1CC(=O)NC(=O)NC1CCCC1 | 6.93 |

| Compound | hERG current change (%, negative = inhibition) at 10uM [%] |
| --- | --- |
| O=C(NCCCn1ccnc1)c1ccccc1Cl | 17.2 |
| c1cncc(-c2nc(N3CCOCC3)c3c4c(sc3n2)CCC4)c1 | 5.82 |
| CCOc1cc(C#N)c(NC(=O)c2cccnc2)cc1OCC | 5.85 |
| CC1(c2ccccc2Cl)NC(=O)N(CC(=O)NCc2ccco2)C1=O (stereo not drawn) | 18.9 |
| CCN(CC)S(=O)(=O)c1ccc(C)c(NC(=O)Cc2ccc(S(=O)(=O)N3CCOCC3)s2)c1 | -25 |
| Cc1nc2c(-c3ccc(F)cc3)cnn2c2c1CCC2 | -3.76 |
| Cc1ccc(OCC(=O)N/N=C\c2ccco2)c(C)c1 | -38 |
| COc1cc(OC)c(C2=NOC(C(=O)Nc3ccc4c(c3)OCO4)C2)cc1Cl (stereo not drawn) | 10.7 |
| Cc1cccc(NN=C2c3ccccc3-c3ccccc32)c1 | 1.48 |
| Cc1ccc(N2C(=O)C(NC(=O)c3ccccc3)(C(F)(F)F)C3=C2CC(C)(C)CC3=O)cc1 (stereo not drawn) | 7.2 |
| Cc1ccc(-c2nc(C)sc2CC(=O)Nc2nnc(C)s2)cc1 | 2.65 |
| O=C(NCCC1CCCCN1S(=O)(=O)c1cccs1)C(=O)Nc1ccc(F)cc1 (stereo not drawn) | -6.79 |
| O=C(Nc1ccc(Cl)c(Cl)c1)Nn1cnnc1 | 20.5 |
| CCS(=O)(=O)N1CCC(C(=O)Oc2ccccc2Cl)CC1 | 11.6 |
| O=C(CSc1nnc2ccc(-c3ccccn3)nn12)NCC1CCCO1 (stereo not drawn) | 8.8 |
| CC(=O)Nc1cccc(NC(=O)CSc2ccc3nnc(CCNC(=O)c4ccccc4)n3n2)c1 | 4.04 |
| CC1Cc2nc(SCC(=O)NC3CCCCC3)n(C)c(=O)c2S1 (stereo not drawn) | -9.7 |
| CCCCOC(=O)Nc1ccc(N2CCOCC2)cc1 | -7.64 |
| NS(=O)(=O)c1ccc(CNS(=O)(=O)c2cc(C(=O)O)ccc2Cl)cc1 | 15.1 |
| Cc1nc(NCC(c2ccccc2)N(C)C)c2c(C)c(C)sc2n1 (stereo not drawn) | -77.1 |
| COc1cc(OC)cc(OCC(O)Cn2cnc(-c3ccccc3)c2)c1 (stereo not drawn) | -16.5 |
| Cc1cc(C)cc(NC(=O)C2CCCN(c3ncccn3)C2)c1 (stereo not drawn) | -0.329 |

Reference: article PMC4336329 (PLoS ONE, 2015)
